Here are results for 89 molecules from PubChem BioAssay AID360 (National Center for Advancing Translational Sciences (NCATS), 2006).

Out of some 48,000 compounds screened, about 550 (1.1%) were called active. Inconclusive results (about 4%) are left out. No stated cut-off is given here; in the data, active means potency below about 15 µM; inconclusive means mostly about 16 µM to 33 µM; inactive means weaker than that. This is one part of the list.
Potency means the concentration at half of the fitted maximal effect.

Chain of UniProt P04062 (P04062 whole entry, looked up): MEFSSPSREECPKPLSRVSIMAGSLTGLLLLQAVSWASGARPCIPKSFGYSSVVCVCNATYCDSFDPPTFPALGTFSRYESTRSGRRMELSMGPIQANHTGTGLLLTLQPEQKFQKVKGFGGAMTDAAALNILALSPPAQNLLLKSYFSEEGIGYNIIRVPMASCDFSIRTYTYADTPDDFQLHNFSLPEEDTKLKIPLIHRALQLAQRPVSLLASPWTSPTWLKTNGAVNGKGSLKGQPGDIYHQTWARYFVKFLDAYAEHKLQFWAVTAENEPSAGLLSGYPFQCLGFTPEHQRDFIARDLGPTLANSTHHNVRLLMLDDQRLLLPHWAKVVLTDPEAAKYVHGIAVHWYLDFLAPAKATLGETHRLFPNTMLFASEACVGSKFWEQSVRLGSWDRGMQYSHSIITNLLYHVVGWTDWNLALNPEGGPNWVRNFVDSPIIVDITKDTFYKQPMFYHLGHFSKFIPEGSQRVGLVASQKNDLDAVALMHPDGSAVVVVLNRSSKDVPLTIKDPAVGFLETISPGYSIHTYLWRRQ

For the experiment, the target named is Lysosomal acid glucosylceramidase (Homo sapiens) (UniProt P04062). As to the kind of experiment: Glucocerebrosidase.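 Further: the screen sought inhibitors.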 Conditions: purified enzyme, resorufin glucoside fluorescence (screen aimed at inhibitors), 20 min. Summed up:
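Compounds titrated against 0.2 nM normal enzyme, 30 uM resorufin beta-D-glucopyranoside substrate, citrate/phosphate buffer with taurocholate and tween-20, pH 5.9. Reaction ran 20 min at room temperature; fluorescence (Ex 548/Em 600) gave AC50.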
As for `CCc1c(C(=O)NCCc2ccc(OC)c(OC)c2)[nH]c(C)c1C(C)=O`, the Potency was inactive: > 76.9 µM.

With `COc1ccc(N2CCN(S(=O)(=O)/C=C/c3ccccc3)CC2)cc1`, the Potency is inactive: > 76.9 µM.

Consider `Cc1ccc(S(=O)(=O)NCCSc2nnnn2C)cc1`, for which the Potency is inactive: > 76.9 µM.

As to `COc1ccc(-n2c(N)c(Br)c(=O)[nH]c2=O)cc1`, the Potency is inactive: > 76.9 µM.

With `Nn1c(SCC(=O)Nc2ccccc2)nnc1-c1cccnc1`, the Potency is inactive: > 76.9 µM.

As for `CCOC(=O)C1=C(O)CCn2c1nc1ccccc12`, the Potency is inactive: > 76.9 µM.

Turning to `CCCCC(=O)Nc1cccc(NC(=O)c2ccc(Br)o2)c1`, the Potency was inactive: > 76.9 µM.

`CC(=O)N1CCCc2cc(S(=O)(=O)NCCC3=CCCCC3)ccc21`: the Potency was inactive: > 76.9 µM.

`CCCCn1nc(C(=O)N2CCc3ccccc32)c2ccccc2c1=O`: the Potency is inactive: > 76.9 µM.

For `CN(C)c1nc2ccccc2c(N)c1-c1ccccc1`, the Potency was inactive: > 76.9 µM.

`Cc1[nH]c(-c2ccco2)nc1C(=O)O`: the Potency was inactive: > 76.9 µM.

Consider `Cc1ccccc1CSc1nnc(-c2ccco2)n1Cc1ccco1`, for which the Potency was inactive: > 76.9 µM.

As for `O=C(c1ccco1)N1CCCSC1=Nc1ccccc1`, the Potency was inactive: > 76.9 µM.

On to `CCOC(=O)N1CCC(N(C(=O)Nc2ccccc2)C(C)CC)CC1` (centres undefined), for which the Potency is inactive: > 76.9 µM.

Take `CC1CCN(C(=O)Nc2cccc(NC(=O)N3CCC(C)CC3)c2)CC1`: the Potency was inactive: > 76.9 µM.

For `N#Cc1ccccc1CSc1nc(N2CCCCC2)nc(N2CCCCC2)n1`, the Potency is inactive: > 76.9 µM.

`C=CCn1c(=O)c2c(nc3n2CCN3c2cccc(Cl)c2C)n(C)c1=O`: the Potency is inactive: > 76.9 µM.

`N#Cc1nc(-c2ccco2)oc1NCc1cccnc1`: the Potency is inactive: > 76.9 µM.

In the case of `CCOc1ccc(NC(=O)COC(=O)Cn2cnnn2)cc1OCC`, the Potency was inactive: > 76.9 µM.

Consider `COC(=O)c1c(NC(=O)CN2CCCC(C)C2)c2c(C)cccc2n1C` (centres undefined), for which the Potency is inactive: > 76.9 µM.

As to `Cc1c(N(C(=O)c2cc(=O)[nH]c3ccccc23)C(C)C)c(=O)n(-c2ccccc2)n1C`, the Potency is inactive: > 76.9 µM.

Regarding `c1ccc2c(-c3nc4ncccc4o3)cccc2c1`, the Potency was inactive: > 76.9 µM.

As for `CCN(CC)C(=O)CSc1nnc([C@H](Cc2c[nH]c3ccccc23)NC(=O)OC(C)(C)C)o1`, the Potency is inactive: > 76.9 µM.

On to `COc1ccc(S(=O)(=O)N(CC(=O)O)c2ccccc2)cc1`, for which the Potency is inactive: > 76.9 µM.

`Cc1sc2ncn(-n3c(C)ccc3C)c(=O)c2c1C`: the Potency is inactive: > 76.9 µM.

As for `O=C(c1cccs1)N(Cc1ccco1)Cc1cc2ccccc2[nH]c1=O`, the Potency was inactive: > 76.9 µM.

For `Brc1ccccc1-c1nnc(COc2ncnc3c2cnn3-c2ccccc2)o1`, the Potency is inactive: > 76.9 µM.

As to `C/C(O)=C\c1nc(=O)c2c(C)cc(C)nc2n1-c1ccccc1`, the Potency was inactive: > 76.9 µM.

`Cc1noc(C)c1S(=O)(=O)N1CCC(C(=O)N2CCN(Cc3ccc4c(c3)OCO4)CC2)CC1`: the Potency was inactive: > 76.9 µM.

As to `CCCSc1nc2c(cnn2-c2ccc(Cl)cc2)c(=O)[nH]1`, the Potency is inactive: > 76.9 µM.

For the molecule `COC(=O)c1ccc2c(=O)n(CCN3CCOCC3)c(=S)[nH]c2c1`, the Potency is inactive: > 76.9 µM.

For the molecule `CCN1CC=C2C(C#N)=C(N)C(C#N)(C#N)C(CCc3ccccc3)C2C1` (centres undefined), the Potency is inactive: > 76.9 µM.

For `CSc1nnc(NC(=O)c2ccc(C)c(S(=O)(=O)N3CCOCC3)c2)s1`, the Potency was inactive: > 76.9 µM.

As to `CCCCN(C)CCCNC(=O)CS(=O)Cc1nc(-c2ccc(OC)c(OC)c2)oc1C` (centres undefined), the Potency was inactive: > 76.9 µM.

As to `O=C1CC(N2CCOCC2)C(=O)N1c1ccccc1Cl` (centres undefined), the Potency was inactive: > 76.9 µM.

On to `O=C(CCSc1ccccc1)N1CCN(C(=O)c2ccco2)CC1`, for which the Potency is inactive: > 76.9 µM.

For the molecule `Cc1cc(NC2C3CC4CC(C3)CC2C4)n2ncnc2n1` (centres undefined), the Potency was inactive: > 76.9 µM.

For the molecule `CCN(C(=O)c1coc(=O)c2ccccc12)c1cc(OC)ccc1OC`, the Potency was inactive: > 76.9 µM.

Consider `Cc1ccc(S(=O)(=O)Cc2ccc(C(=O)N3CCN(c4cc(C)ccc4C)CC3)o2)cc1`, for which the Potency entry is “inactive”.

In the case of `COc1ccc2c(c1)C1(Nc3ccccc3-c3nc4ccccc4n31)C(=O)N2C` (centres undefined), the Potency is inactive: > 76.9 µM.

Consider `Cc1ccccc1-c1ccc(C=Nc2c(C)n(C)n(-c3ccccc3)c2=O)o1`, for which the Potency is inactive: > 76.9 µM.

In the case of `CCN1C(=O)C(O)(C2COC(C)(C)CC2=O)c2cc(Br)ccc21` (centres undefined), the Potency was inactive: > 76.9 µM.

In the case of `CCSc1oc(-c2ccccc2)nc1S(=O)(=O)c1ccccc1`, the Potency is inactive: > 76.9 µM.

With `O=C(Oc1ccc(Cl)cc1N1C(=O)CCC1=O)c1ccco1`, the Potency is inactive: > 76.9 µM.

Turning to `Cc1nn(-c2ccccc2)c(Cl)c1C(=O)Nc1nnc(C2CCCC2)s1`, the Potency was inactive: > 76.9 µM.

As for `CCC1CCCCN1C(=O)CSc1nnc(CNC(=O)c2cc(OC)c(OC)c(OC)c2)o1` (centres undefined), the Potency is inactive: > 76.9 µM.

`Cn1cc(C(=O)c2ccccc2)cc1-c1nc2ccccc2n1C`: the Potency is inactive: > 76.9 µM.

On to `COc1cc(OC)cc(-c2nnc(SCC(=O)N3CCOCC3)o2)c1`, for which the Potency is inactive: > 76.9 µM.

Consider `Cn1c(SCc2ccccc2)nnc1-c1ccncc1`, for which the Potency is inactive: > 76.9 µM.

In the case of `COc1ccc(C(=O)CSc2nnc(-c3ccccn3)n2Cc2ccco2)cc1`, the Potency is inactive: > 76.9 µM.

On to `N#Cc1nc(Cc2cccc3ccccc23)oc1NCCCN1CCOCC1`, for which the Potency is inactive: > 76.9 µM.

Turning to `COc1cccc(C2C(C#N)=C(N)Oc3c2oc(CO)cc3=O)c1OC` (centres undefined), the Potency was inactive: > 76.9 µM.

In the case of `C=CCn1c(N)cc(=O)nc1SCC(=O)Nc1ccccc1`, the Potency was inactive: > 76.9 µM.

For the molecule `Cc1c(Cl)ccc2c1NC(=O)[C@]21N[C@@H](CCC(N)=O)[C@H]2C(=O)N(c3ccc(F)cc3)C(=O)[C@H]21`, the Potency is inactive: > 76.9 µM.

Take `CCOC(=O)N1CCN(C2CC(=O)N(c3ccc(C)cc3)C2=O)CC1` (centres undefined): the Potency was inactive: > 76.9 µM.

For `Cn1nnnc1SCc1cn2cccnc2n1`, the Potency was inactive: > 76.9 µM.

On to `COc1ccc(CCC(=O)NCc2cn3ccsc3n2)cc1`, for which the Potency was inactive: > 76.9 µM.

In the case of `Cc1cnc(NC(=O)CCCSc2nc3ccccc3s2)s1`, the Potency was inactive: > 76.9 µM.

`CCN(CC)C(=O)CSc1nc2ncc(Cl)cc2[nH]1`: the Potency is inactive: > 76.9 µM.

On to `Cc1cc(Br)ccc1NC(=O)CNC(=O)CN(C)Cc1nc2ccccc2c(=O)[nH]1`, for which the Potency was inactive: > 76.9 µM.

On to `Cc1cccc(N(C)S(=O)(=O)c2cccc3nsnc23)c1`, for which the Potency was inactive: > 76.9 µM.

Consider `CCC(=O)Nc1cc(C(F)(F)F)ccc1N1CCOCC1`, for which the Potency is inactive: > 76.9 µM.

For `CC(C)CNC(=O)COc1ccc2c3c(c(=O)oc2c1)CCC3`, the Potency was inactive: > 76.9 µM.

Consider `COc1ccc(OC)c(-c2cc(C(=O)N3CCN(c4ncccn4)CC3)c3ccccc3n2)c1`, for which the Potency was inactive: > 76.9 µM.

Regarding `CCOc1ccc(-c2nnn(CC(=O)c3ccc4c(c3)OCCO4)n2)cc1`, the Potency was inactive: > 76.9 µM.

`CCOC(=O)c1ccc(NC(=O)CCc2nc(-c3ccc(Cl)cc3)no2)cc1`: the Potency was inactive: > 76.9 µM.

Turning to `NC(=O)NC(Cc1ccccc1)C(=O)NCC1(N2CCCCC2)CCCCC1` (centres undefined), the Potency is inactive: > 76.9 µM.

With `O=C(CCCc1nc2ccccc2s1)N1CCN(S(=O)(=O)c2cccs2)CC1`, the Potency is inactive: > 76.9 µM.

Take `N#CCCn1c(SCC(=O)N2CCN(S(=O)(=O)c3ccccc3)CC2)nc2ccccc21`: the Potency is inactive: > 76.9 µM.

`O=S(=O)(Cc1ccccc1)N1CCN(Cc2ccccc2)CC1`: the Potency was inactive: > 76.9 µM.

In the case of `CC1CCCC(C)N1CCNC(=O)C1CCN(S(=O)(=O)N2CCCCC2)CC1` (centres undefined), the Potency was inactive: > 76.9 µM.

As to `CC(C)Oc1ccc(C(=O)N(Cc2ccco2)C2CCS(=O)(=O)C2)cc1` (centres undefined), the Potency is inactive: > 76.9 µM.

In the case of `COCCn1nnnc1C(c1ccc2ncccc2c1)N1CCN(c2ccccc2F)CC1` (centres undefined), the Potency was inactive: > 76.9 µM.

For `Cc1ccc(S(=O)(=O)CCC(=O)Nc2ccc3c(c2)OCO3)cc1`, the Potency is inactive: > 76.9 µM.

For `COc1ccc2nc(SCC(=O)N3CCCCCC3)c(C#N)cc2c1`, the Potency was inactive: > 76.9 µM.

Take `CCOc1ccccc1NC(=O)NC1(C(=O)N2CCN3CCCC3C2)CCCCC1` (centres undefined): the Potency was inactive: > 76.9 µM.

`CCOC(=O)C1=C(C)N(C)C(=O)NC1c1cc2c(cc1Br)OCO2` (centres undefined): the Potency was inactive: > 76.9 µM.

For the molecule `COc1ccc2c3c(cccc13)NN=C2C`, the Potency is inactive: > 76.9 µM.

`COc1cccc(C(CC(=O)NCc2ccco2)NS(=O)(=O)c2ccc(C)cc2)c1OC` (centres undefined): the Potency is inactive: > 76.9 µM.

Regarding `COc1cc(-c2nc3cnccn3c2Nc2ccc3c(c2)OCCO3)ccc1O`, the Potency was inactive: > 76.9 µM.

Turning to `CCCS(=O)(=O)N1CCC(C(=O)NCc2ccco2)CC1`, the Potency is inactive: > 76.9 µM.

Turning to `CCC(Oc1ccccc1)C(=O)Nc1nnc(C(F)(F)F)s1` (centres undefined), the Potency was inactive: > 76.9 µM.

As to `O=C(Nc1ccc2c(c1)OCO2)C1CCCN(S(=O)(=O)Cc2ccccc2)C1` (centres undefined), the Potency is inactive: > 76.9 µM.

`COc1cc(NC(=O)c2ccc(Br)o2)ccc1NC(=O)c1ccccc1Cl`: the Potency was inactive: > 76.9 µM.

`COc1cc(C(=O)OCC(=O)N(C)Cc2ccccc2)cc(OC)c1OC`: the Potency was inactive: > 76.9 µM.

As for `CCn1c(C(=O)N2CCCC(C(=O)NCCc3ccc(C)cc3)C2)cc2sccc21` (centres undefined), the Potency entry was “inactive”.

Regarding `Cc1nc(-c2ccc(C(=O)N3CCOCC3)cc2)cs1`, the Potency is inactive: > 76.9 µM.

In the case of `CCCn1c(=O)c2ccccc2n2c(SCCOc3ccc(Cl)cc3)nnc12`, the Potency is inactive: > 76.9 µM.

As for `O=C(NCC1COc2ccccc2O1)c1c[nH]c2ccc(S(=O)(=O)N3CCOCC3)cc2c1=O` (centres undefined), the Potency was inactive: > 76.9 µM.
